Some of the results follow. Most values come without repeats; read them as rough.
How the values were obtained:
Assay in all cases: cell count relative to DMSO control; melanoma cells; higher = more viable cells
Details in all cases: library dose: standard library concentration; 72 h
[1] = tested on: G361
[2] = tested on: IPC-298
[3] = tested on: IST-MEL1
[4] = tested on: LB2518-MEL
[5] = tested on: LOXIMVI
[6] = tested on: MEL-HO
[7] = tested on: MZ2-MEL
[8] = tested on: MeWo
[9] = tested on: RPMI7951
[10] = tested on: RVH-421
[11] = tested on: SkMel28
[12] = tested on: SkMel2
[13] = tested on: SkMel30
[14] = tested on: SkMel5
[15] = tested on: UACC257
[16] = tested on: UACC62
[17] = tested on: WM115
[18] = tested on: WM1716
[19] = tested on: WM1745
[20] = tested on: WM3526
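Further: cells treated in 1,536-well plates, then fixed and DAPI-stained, with nuclei counted from automated high-throughput microscope images.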

Structure (SMILES) | cell count [1] [%] | cell count [2] [%] | cell count [3] [%] | cell count [4] [%] | cell count [5] [%] | cell count [6] [%] | cell count [7] [%] | cell count [8] [%] | cell count [9] [%] | cell count [10] [%] | cell count [11] [%] | cell count [12] [%] | cell count [13] [%] | cell count [14] [%] | cell count [15] [%] | cell count [16] [%] | cell count [17] [%] | cell count [18] [%] | cell count [19] [%] | cell count [20] [%]
Nc1cccc2c1CN(C1CCC(=O)NC1=O)C2=O (stereo not given) [lenalidomide] + COc1ccc2c(c1)CCC1C2CCC2(C)C(NCCCCCCN3C(=O)C=CC3=O)CCC12 [U73122] (first compound 5 µM, partner dose 2 µM) | 75.6 | 99.6 | 5.94 | 103 | 203 | 102 | 106 | 90.4 | 36 | 112 | 107 | 81.9 | 106 | 66.7 | 88.9 | 68.8 | 79 | 82.1 | 80.9 | 95.9
C#Cc1cccc(Nc2ncnc3cc(OCCOC)c(OCCOC)cc23)c1 [erlotinib] + Oc1nc(-c2ccc(C(F)(F)F)cc2)nc2c1CSCC2 [XAV939] (first compound 4 µM, partner dose 10 µM) | 64.4 | 82.8 | 81.8 | 68.4 | 76.5 | 73.7 | 70 | 81.1 | 44.7 | 92.8 | 64.5 | 90.9 | 78.9 | 67.1 | 88.3 | 85.1 | 71.7 | 75.6 | 48.7 | 72.1
Cn1c(Nc2ccc(C(F)(F)F)cc2)nc2cc(Oc3ccnc(-c4ncc(C(F)(F)F)[nH]4)c3)ccc21 + O=C1NC(=O)/C(=C/c2ccc(-c3ccc(F)cc3O)o2)S1 [AS252424] (first compound 0.4 µM, partner dose 5 µM) | 15.3 | 43.5 | 85.9 | 33.5 | 67.3 | 57.3 | 60.6 | 61.7 | 50 | 43.7 | 41.6 | 44.2 | 62.7 | 39.8 | 65 | 66.4 | 28.4 | 53.7 | 42.9 | 25.8
Cn1c(Nc2ccc(C(F)(F)F)cc2)nc2cc(Oc3ccnc(-c4ncc(C(F)(F)F)[nH]4)c3)ccc21 + Cn1cc(/C=C2\C(=O)Nc3cccnc32)c2ccccc21 [GW441756] (first compound 0.4 µM, partner dose 2 µM) | 26.1 | 61.3 | 85.6 | 30.4 | 78.3 | 67.5 | 66.3 | 62.2 | 48.5 | 54 | 34.1 | 57.2 | 67.1 | 25.2 | 72.5 | 35.9 | 38.5 | 61.8 | 60.4 | 31.9
O=C(CCCCCCC(=O)Nc1ccccc1)NO [vorinostat] + Cn1cncc1[C@@](N)(c1ccc(Cl)cc1)c1ccc2c(c1)c(-c1cccc(Cl)c1)cc(=O)n2C [tipifarnib] (first compound 0.4 µM, partner dose 0.05 µM) | 81.4 | 79.6 | 89.9 | 59.2 | 46.4 | 84.7 | 100 | 73.4 | 54.6 | 80.4 | 39.2 | 62.7 | 79.4 | 67 | 59.9 | 68.6 | 57.5 | 61.3 | 76.9 | 75.6
COCC[n+]1c2c(n(Cc3cnccn3)c1C)C(=O)c1ccccc1C2=O + CCc1ccc(CCOc2ccc(CC3SC(=O)NC3=O)cc2)nc1 [pioglitazone] (first compound 0.002 µM, partner dose 10 µM) | 70.2 | 61.9 | 43.8 | 25.4 | 48.9 | 86.9 | 30.1 | 76.4 | 42.1 | 96.4 | 24 | 42.9 | 67.2 | 36.7 | 40.3 | 74.9 | 73.5 | 65.5 | 87.3 | 39.5
COCC[n+]1c2c(n(Cc3cnccn3)c1C)C(=O)c1ccccc1C2=O + OCCn1cc(-c2cnc3nnn(Cc4ccc5ncccc5c4)c3n2)cn1 [PF04217903] (first compound 0.002 µM, partner dose 5 µM) | 69.4 | 66 | 115 | 27.9 | 51.5 | 104 | 39.2 | 50.5 | 29.7 | 16.4 | 51.4 | 46 | 76.7 | 31.7 | 24.4 | 94 | 75.3 | 56.9 | 96.2 | 42.4
O=C(CCCCCCC(=O)Nc1ccccc1)NO [vorinostat] + COc1ccc(COc2ccc(Cc3cnc(N)nc3N)cc2OC)cc1 [GW2580] (first compound 0.4 µM, partner dose 5 µM) | 83.5 | 86.9 | 106 | 81.3 | 84.8 | 96.7 | 83.7 | 75.7 | 81.2 | 76 | 65.5 | 91.3 | 106 | 64.8 | 72.4 | 85.1 | 70.5 | 92.7 | 79.3 | 74.5
OCc1c[nH]c2ccccc12 [Indole-3-carbinol] + CN(C)S(=O)(=O)c1ccc2c(c1)/C(=C/c1cc3c([nH]1)CCCC3)C(=O)N2 [SU6656] (first compound 4 µM, partner dose 2 µM) | 75.1 | 81.7 | 87 | 92.2 | 86.8 | 92.7 | 120 | 83.7 | 66.2 | 89.6 | 68.6 | 95.6 | 70.5 | 70.9 | 79.7 | 60.1 | 83.1 | 72.4 | 69.1 | 83.6
Nc1cccc2c1CN(C1CCC(=O)NC1=O)C2=O (stereo not given) [lenalidomide] + C[C@]1(c2nc3c(C(N)=O)cccc3[nH]2)CCCN1 [Veliparib] (first compound 5 µM, partner dose 7 µM) | 113 | 107 | 87.5 | 95.7 | 62 | 93.2 | 96.3 | 96.8 | 85.8 | 90.8 | 102 | 94.5 | 117 | 91.8 | 97 | 63.9 | 88.7 | 105 | 91.9 | 101
Cn1c(Nc2ccc(C(F)(F)F)cc2)nc2cc(Oc3ccnc(-c4ncc(C(F)(F)F)[nH]4)c3)ccc21 + O=C(Nc1cccc(Cl)c1)Nc1ncc(CCNc2ncnc3ccsc23)s1 [SNS314] (first compound 0.4 µM, partner dose 0.004 µM) | 27.5 | 43.7 | 51.3 | 36.4 | 55.8 | 56 | 55.3 | 63 | 39.2 | 51.1 | 24.5 | 45.4 | 70.5 | 37 | 67.1 | 58.9 | 25.7 | 56.7 | 49.2 | 34.3
COCC[n+]1c2c(n(Cc3cnccn3)c1C)C(=O)c1ccccc1C2=O + Cn1cncc1[C@@](N)(c1ccc(Cl)cc1)c1ccc2c(c1)c(-c1cccc(Cl)c1)cc(=O)n2C [tipifarnib] (first compound 0.002 µM, partner dose 0.05 µM) | 71.9 | 50 | 90.4 | 23.6 | 52.2 | 80.6 | 40.3 | 62.2 | 37.5 | 51.2 | 34.4 | 44.5 | 80.3 | 47.6 | 28.4 | 78.2 | 64.9 | 59.6 | 117 | 47.4
Clc1ccc(Nc2nnc(Cc3ccncc3)c3ccccc23)cc1 [vatalanib] + C#Cc1cccc(Nc2ncnc3cc(OCCOC)c(OCCOC)cc23)c1 [erlotinib] (first compound 10 µM, partner dose 4 µM) | 62.1 | 50.4 | 82.1 | 59.3 | 66.3 | 65.8 | 49.9 | 61 | 59 | 56.8 | 63.1 | 68.1 | 74.4 | 46.3 | 75.9 | 49.1 | 106 | 82.9 | 43.7 | 64.9
Cn1c(Nc2ccc(C(F)(F)F)cc2)nc2cc(Oc3ccnc(-c4ncc(C(F)(F)F)[nH]4)c3)ccc21 + CN(NC(=O)CC(=O)NN(C)C(=S)c1ccccc1)C(=S)c1ccccc1 [STA4783] (first compound 0.4 µM, partner dose 0.03 µM) | 15.9 | 44.7 | 32.5 | 7.46 | 44.9 | 65.2 | 71.2 | 12 | 39.7 | 44.6 | 23 | 33.3 | 64.9 | 24.7 | 65.5 | 55.8 | 29.7 | 65.1 | 26.5 | 42.9
COCC[n+]1c2c(n(Cc3cnccn3)c1C)C(=O)c1ccccc1C2=O + CCCCCCCCCCCC1=C(O)C(=O)C=C(O)C1=O [Embelin] (first compound 0.002 µM, partner dose 6 µM) | 45.3 | 45.7 | 50.6 | 36.3 | 74.2 | 66.6 | 33.9 | 86.6 | 42.4 | 78.8 | 59.9 | 29.7 | 77.4 | 74.9 | 17.6 | 99.3 | 67.5 | 70.5 | 67.5 | 51.9
C#Cc1cccc(Nc2ncnc3cc(OCCOC)c(OCCOC)cc23)c1 [erlotinib] + CC(C)CCN1c2nc(Nc3cc(F)c(O)c(F)c3)ncc2N(C)C(=O)C1C [BID1870] (first compound 4 µM, partner dose 1 µM) | 44.9 | 70.8 | 92.5 | 68.5 | 237 | 57.3 | 82.2 | 55.6 | 72.6 | 97 | 53.1 | 68.7 | 74 | 59.9 | 82.3 | 55.5 | 75 | 59.9 | 45.1 | 61.3
Nc1cccc2c1CN(C1CCC(=O)NC1=O)C2=O (stereo not given) [lenalidomide] + Cc1cc([N+](=O)[O-])ccc1NS(=O)(=O)c1cc(Cl)ccc1Cl [FH535] (first compound 5 µM, partner dose 5 µM) | 65.5 | 63.3 | 64 | 87.6 | 72.9 | 65.8 | 78.5 | 84.1 | 96 | 75.6 | 81.6 | 92.7 | 99.6 | 76.9 | 80.9 | 109 | 84 | 85.5 | 91.4 | 84.3
Cn1c(Nc2ccc(C(F)(F)F)cc2)nc2cc(Oc3ccnc(-c4ncc(C(F)(F)F)[nH]4)c3)ccc21 + Cn1nnc2c(C(N)=O)ncn2c1=O [temozolomide] (first compound 0.4 µM, partner dose 10 µM) | 25.5 | 46.7 | 80.8 | 40.3 | 77.7 | 60.9 | 73.1 | 70 | 53.9 | 50.6 | 18.1 | 48.4 | 51 | 34.4 | 75.8 | 40.3 | 49 | 51.4 | 68.6 | 41.5

Source: the supplement of paper PMC4604168 (melanoma cell lines)
